In PubChem BioAssay AID504832 (National Center for Advancing Translational Sciences (NCATS), 2011):
About 18,000 (5.8%) of roughly 310,000 compounds were called active. Inconclusive results, whose numbers are uncertain, are shown with a selection of clear calls. Calls come from the whole dose curve; as a rule, active = well fitted inhibition curve with a large enough effect; inconclusive = small, poorly fitted or top-dose-only effect, or another doubt; inactive = no such curve, though single readings can be large or run the other way. No potency is given beside an inconclusive call; the fits are too rough.

Assay: Primary qHTS for delayed death inhibitors of the malarial parasite plastid, 48 hour incubation
Conditions: P. falciparum luciferase growth in erythrocytes; series mostly up to 28.7 µM; activity change, negative = inhibition: at the top concentration
Method in brief: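 Cell-based growth assay: transgenic P. falciparum expressing firefly luciferase, cultured in red cells within RPMI 1640 containing 0.5% w/v Albumax, 24 mM bicarbonate and gentamycin. A drop in luciferase activity indicates inhibition.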
% is set by controls: 0 for no effect and ±100 for the full control effect; potency is the fitted concentration of half-maximal effect; tags give direction and shape of the fitted curve.

Compound	Potency	activity change, negative = inhibition
Cc1c(C(=O)NCc2ccco2)oc2ccc(S(=O)(=O)N3CCC4(CC3)OCCO4)cc12	inconclusive [inhibitor, partial curve, poor fit]	
N#CCNC1CC(=O)N(c2ccc(F)cc2)C1=O (stereo not drawn)		inactive: -3.95%
O=C1Nc2ccccc2/C1=C/c1ccccc1F		inactive: 0.0403% [at 0.00184 µM]
COC(=O)C1CN(S(=O)(=O)c2ccc(C)cc2)CCN1S(=O)(=O)c1ccc(C)cc1 (stereo not drawn)	inconclusive [inhibitor, single point]	
COC(=O)[C@@]1(Cc2ccccc2)[C@@H]2C(=CC(=O)[C@H]2CC(=O)C(=O)N(C)C)CN1C(=O)c1ccccc1	inconclusive [inhibitor, single point]	
Cc1cc(C)cc(NC(=O)[C@H](NC(=O)[C@@H]2Cc3ccccc3CN2)c2ccccc2)c1	inconclusive [inhibitor, single point]	
O=C(N/N=C/c1cc([N+](=O)[O-])ccc1O)/C(=C\c1cccs1)NC(=O)c1ccccc1	inconclusive [inhibitor, single point]	
COc1cccc(NC(=O)c2cccc(N3C(=O)C4CCC(C)CC4C3=O)c2)c1 (stereo not drawn)	active: 2.33 µM	
Cc1ccc(S(=O)(=O)N2CCOC23CCN(S(=O)(=O)c2c(C)cc(C)cc2C)CC3)cc1	inconclusive [inhibitor, full curve, poor fit]	
Cc1cccc(Nc2cc(C)c3c(O)cccc3n2)c1C	active: 0.738 µM	
CCCc1[nH]nc2c1C(c1ccc(OC)c(Cn3nc(C)c(Br)c3C)c1)C(C#N)=C(N)O2 (stereo not drawn)	inconclusive [inhibitor, single point]	
COc1cc(Cl)c(C)cc1NC(C)C(=O)Nc1cc(C(F)(F)F)ccc1N1CCOCC1 (stereo not drawn)	active: 0.147 µM	
CS(=O)(=O)c1ccccc1-c1nc(-c2cccc(Cl)c2)no1	inconclusive [inhibitor, single point]	
Cc1ccc(-n2c(C)cc(C(=O)CSc3n[nH]c(N)n3)c2C)cc1	inconclusive [inhibitor, partial curve]	
Cc1ccc(CN2CCCC(C(=O)c3cccc(C(F)(F)F)c3)C2)o1 (stereo not drawn)		inactive: -4.32%
COC(=O)c1sccc1NC(=O)CSc1ccccc1NS(=O)(=O)c1ccc(Br)cc1	inconclusive [inhibitor, partial curve, poor fit]	
c1ccc(-n2nnnc2Cc2nnnn2-c2ccccc2)cc1	inconclusive [inhibitor, partial curve, poor fit]	
O=[N+]([O-])c1cc(C(F)(F)F)ccc1NCC1CCCO1 (stereo not drawn)		inactive: -0.118%
Cc1cc2c(c(=O)o1)C1(C(=O)N(CC(=O)O)c3ccccc31)C(C#N)=C(N)O2 (stereo not drawn)		inactive: 26.7%
O=C(Nc1ccc(-c2noc(CCc3ccccc3)n2)cc1)c1cccnc1	inconclusive [inhibitor, single point]	
CCOC(=O)c1cnc2ccccc2c1Nc1cc(C(=O)O)ccc1C		inactive: -23.8%
CC(C)(C)OC(=O)N1CCC(c2c(C(=O)N3CCN(C4CCCCC4)CC3)cnn2-c2ccccc2)CC1	inconclusive [inhibitor, partial curve]	
CCN(CC)c1ccc(Nc2nc(N3CCOCC3)c3ccccc3n2)cc1		inactive: 0%

Compound	Potency	activity change, negative = inhibition
COc1ccc(CN(C(=O)c2oc3cc(C)c(C)cc3c2C)C2CCS(=O)(=O)C2)cc1OC (stereo not drawn)	inconclusive [inhibitor, single point]	
CC(/C=N\N1CCN(Cc2ccc(C)cc2)CC1)=C\c1ccccc1		inactive: 13.3%
CCCC/C(O)=N\S(=O)(=O)c1ccc(N=NN(C)C)cc1		inactive: -2.13%
O=C(CN1CCN(c2ccc(F)cc2)CC1)Nc1ccccc1C(=O)NCCc1ccccc1	inconclusive [inhibitor, single point]	
Cc1cccc(C(=O)Nc2ccc(C(=O)N/N=C/c3cccnc3)cc2)c1	inconclusive [inhibitor, partial curve, poor fit]	
Clc1ccc2c(c1)[C@H]1OCC[C@H]1[C@@H](c1ccco1)N2		inactive: 100%
Cc1ccc(SCCC(=O)N2CCN(S(=O)(=O)c3ccccc3)CC2)cc1	inconclusive [inhibitor, single point]	
COc1cc2c(cc1OC)[C@@H]1C(=O)c3ccc4c(c3O[C@@H]1CO2)C[C@H](C(C)C)O4	inconclusive [inhibitor, single point]	
O=c1oc2ccc(C#CC3(O)CCCCC3)cc2cc1-n1cc(-c2ccsc2)nn1		inactive: 0%
Cc1ccc(-c2cc(-c3ccc4c(c3)OCO4)c(C#N)c(N)n2)o1	inconclusive [inhibitor, partial curve, poor fit]	
Cc1ccc(S(=O)(=O)c2c(C)c(C)c(C)[nH]c2=O)cc1	inconclusive [inhibitor, full curve, poor fit]	
CCC(=O)N1CCc2cc(S(=O)(=O)CCC(=O)Nc3ccc(CC)cc3)ccc21		inactive: -8.19%
C/C=C\C(=O)Nc1cccc(C2=NOC3(C2)C[C@@H](C(N)=O)N(C(=O)c2ccccc2)C3)c1 (stereo partly drawn)	inconclusive [inhibitor, single point]	
O=C(CSc1nc2ccccc2o1)N/N=C/c1ccccc1		inactive: 89.7%
CCc1ccc(CNC(=O)C2CCC(=O)N(CCc3ccc(Cl)cc3)C2)nc1 (stereo not drawn)		inactive: -18.8%
O=C(/C=C/c1ccccc1)N(c1ccccn1)C1CCCCC1		inactive: -14.4%
C[C@H]1CN=C(N(C)C)N1CCCC1CCCC1	inconclusive [inhibitor, single point]	
CC1CCC(NC(=O)CN2CCC(n3nnc4cc(F)ccc43)CC2)CC1 (stereo not drawn)	inconclusive [inhibitor, partial curve, poor fit]	
CC(=O)Nc1ccc(NC(=O)CCc2c(C)noc2C)cc1	inconclusive [inhibitor, single point]	
CC(COc1ccccc1)N1CCC(CO)(CCc2ccccc2)CC1 (stereo not drawn)	inconclusive [inhibitor, partial curve]	
Cc1ccc(-c2c(C)nn3c(N4CCOCC4)cc(C)nc23)cc1		inactive: -22.6%
CCn1cc(CNc2nc3nonc3nc2N2CCCCC2)cn1	inconclusive [inhibitor, full curve]	
O=C(CNc1ccccc1-c1ccccc1)NCc1ccccc1	inconclusive [inhibitor, single point]	

Compound	Potency	activity change, negative = inhibition
CC(NC(=O)[C@@H](C)NC(=O)[C@@H]1Cc2ccccc2CN1C(=O)OC(C)(C)C)c1ccccc1 (stereo partly drawn)	inconclusive [inhibitor, single point]	
CCOC(=O)c1sc(NC(=O)CSc2nc3c(cc2C#N)CCCCC3)c(C#N)c1C	inconclusive [inhibitor, partial curve, poor fit]	
O=C(Nc1cccc([N+](=O)[O-])c1)C1COc2ccccc2O1 (stereo not drawn)		inactive: -11.8%
COCCN(Cc1cc2cc(C)ccc2[nH]c1=O)S(=O)(=O)c1ccc(Cl)cc1		inactive: -11.3%
CCC(C)Nc1nc(N)c([N+](=O)[O-])c(Nc2ccccc2OC)n1 (stereo not drawn)	active: 11.7 µM	
O=C1C(Cc2ccccc2)Nc2ncnc(N3CCOCC3)c2N1Cc1ccc(Br)cc1 (stereo not drawn)	active: 13.1 µM	
CC(C)(C)N(Cc1ccccc1)C(=O)CCc1ccccc1	inconclusive [inhibitor, single point]	
CCN(CC)c1ccc(/C=N/Nc2nc(C)cc(=O)[nH]2)cc1	inconclusive [inhibitor, single point]	
CCc1cccc2c(/C=N/NC(=O)c3cccc(S(=O)(=O)Nc4ccccc4Cl)c3)c[nH]c12		inactive: 2.15%
O=C(c1ccc(Cl)c(S(=O)(=O)N2CCCCCC2)c1)N1CCCC1		inactive: 20.2%
CCOC(=O)C1=C(C)NC(SCC(N)=O)=C(C#N)C1c1cccs1 (stereo not drawn)	inconclusive [inhibitor, full curve, poor fit]	
Cc1nn(-c2ccccc2)c2ncc(C(=O)c3cc(Cl)ccc3O)cc12	active: 1.85 µM	
CCOC(=O)c1c(NC(=O)C2=C(C)NC(=S)NC2c2ccc(CC)cc2)sc(C)c1C (stereo not drawn)	inconclusive [inhibitor, single point]	
COc1ccc(C(=O)O/N=C2\CCCc3nonc32)cc1		inactive: 17.8%
CCCN(C(=O)c1ccc(S(=O)(=O)N2CCCC2)cc1)C1CCS(=O)(=O)C1 (stereo not drawn)	inconclusive [inhibitor, single point]	
CCOc1cc2[nH]c(=O)n(CCCC(=O)NCc3ccco3)c(=O)c2cc1OCC	inconclusive [inhibitor, full curve, poor fit]	
O=S(=O)(NCCc1ccncc1)c1ccc(S(=O)(=O)N2CCCCCC2)cc1	inconclusive [inhibitor, partial curve]	
O=c1cc(Cl)c(-c2ccccc2)nn1Cc1ccc(Cl)cc1	inconclusive [inhibitor, full curve, poor fit]	
CN(CC(=O)Nc1c(Cl)cccc1Cl)C(=O)Cc1cccs1	inconclusive [inhibitor, single point]	
CC(=O)c1ccc(N2CCN(C(=O)CCS(=O)(=O)c3ccc4c(c3)NC(=O)CS4)CC2)cc1	inconclusive [inhibitor, single point]	
COc1ccc(-c2cnc(N)n2CC2CCCO2)cc1 (stereo not drawn)	inconclusive [inhibitor, full curve, poor fit]	
CCC1CCCCN1CCCNC(=O)c1ccc(CS(=O)(=O)c2ccccc2C)o1 (stereo not drawn)		inactive: 8.1%
